# Measurements taken from PubChem BioAssay AID686978 (National Center for Advancing Translational Sciences (NCATS), 2013).
# Where “and” joins values, the source holds several entries; their conditions need not be identical. Equal entries are not always repeated. The campaign covered roughly 420,000 compounds. About 64,000 (15%) were called active. The inconclusive results got no clear call from the source; some entries with a clear call stand among them for comparison. Calls come from the whole dose curve; as a rule, active = well fitted inhibition curve with a large enough effect; inconclusive = small, poorly fitted or top-dose-only effect; inactive = flat fitted curve, though single readings scatter. Potencies beside an inconclusive call are fits to weak or partial responses and may not hold up.
# Test: qHTS for Inhibitors of human tyrosyl-DNA phosphodiesterase 1 (TDP1): qHTS in cells in absence of CPT; note: nearly all actives have a fitted effect of over 55% in size
# Settings: DT40 Tdp1-/- hTDP1 cells, no CPT, ATP luminescence, 48 h; activity change, negative = growth inhibition: at 46.2 µM (top of the series) unless noted
# Outline: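 DT40 Tdp1-/-;hTDP1 cells, no CPT (DMSO vehicle only), 400 cells/well; compounds pin-transferred; ≥48 hr, 37 °C; CellTiter-Glo 30 min RT dark, luminescence read.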
# % is set by controls: 0 for no effect and ±100 for the full control effect; potency is the fitted concentration of half-maximal effect; tags give direction and shape of the fitted curve.
SMILES,Potency,"activity change, negative = growth inhibition"
CCOC(=O)C1CCN(C(=O)c2cccc(S(=O)(=O)N3CCCc4ccccc43)c2)CC1,active: 23.1 µM,
COc1cc(CCN(C(=O)c2cccc(S(C)(=O)=O)c2)C(CCc2ccccc2)c2nc3ccccc3[nH]2)cc(OC)c1 (centres undefined),"inconclusive: 23.1 µM [inhibitor, single point]",
Cc1noc(C)c1S(=O)(=O)N1CCC(C(=O)N2CCN(c3ccccc3)CC2)CC1,"inconclusive: 29.1 µM [inhibitor, single point]",
COc1ccc(/C=N/Nc2cc(C)nc3ccccc23)cc1,"inconclusive: 25.9 µM [inhibitor, single point]",
O=[N+]([O-])c1ccc(C=Nc2ccccc2)cc1,"inconclusive: 1.03 µM [inhibitor, full curve]",
COc1cc(NCCCn2cnc3c(OCc4ccccc4)ncnc32)cc(OC)c1OC,"inconclusive: 20.6 µM [inhibitor, single point]",
CCCn1c(SCC(=O)c2cc(C)n(-c3ccc4c(c3)OCO4)c2C)n[nH]c1=O,active: 6.51 µM,
Cc1ccc(Nc2nc(-c3cccs3)cs2)nc1,"inconclusive: 32.6 µM [inhibitor, partial curve, poor fit]",
Cc1c(C(=O)N(Cc2ccccc2Cl)C2CCS(=O)(=O)C2)oc2ccccc12 (centres undefined),"inconclusive: 29.1 µM [inhibitor, single point]",
Cn1c(NCCO)nc2c1c(=O)n(Cc1ccccc1Cl)c(=O)n2C,,inactive: -0.387%
COc1ccc(CNS(=O)(=O)c2c(C)[nH]c(C)c2C(=O)N2CCCC2)cc1,,inactive: 16.9%
CCNC(=S)N(Cc1cc2cc(C)cc(C)c2[nH]c1=O)C1CCCC1,"inconclusive: 23.1 µM [inhibitor, single point]",
CCC(=O)N(Cc1cc2ccccc2[nH]c1=O)c1ccccc1OC,,inactive: -15.8%
O=C(NC(=S)Nc1ccccc1Br)c1ccco1,"inconclusive: 32.6 µM [inhibitor, single point]",
Cc1ccc(-c2csc3ncnc(Cl)c23)cc1,"inconclusive: 29.1 µM [inhibitor, single point]",
CCc1ccc(/C=C2\SC(=S)N(CCCC(=O)N3CCCC3)C2=O)cc1,"inconclusive: 23.1 µM [inhibitor, single point]",
C[C@@H]1CN([C@H](C)CO)C(=O)CCCn2cc(nn2)CO[C@H]1CN(C)S(C)(=O)=O,,inconclusive: -4.34% [inhibitor]
CC(=O)c1c(C(C)=O)c(C)n(NC(=O)c2ccc(Cl)cc2)c1C,,inactive: 2.39%
NC(=O)c1cc([N+](=O)[O-])ccc1NCc1ccc(F)cc1,"inconclusive: 29.1 µM [inhibitor, single point]",
COc1ccccc1-c1ccc2ncnc(N3CCOCC3)c2c1,active: 20.6 µM,
Cc1nn(Cc2ccccc2Cl)c(C)c1NC(=O)NC12CC3CC(CC(C3)C1)C2,"inconclusive: 29.1 µM [inhibitor, single point]",
O=C(Cn1cc2ccccc2n1)N1CCOc2ccc(C(O)C3CCCCC3)cc2C1 (centres undefined),"inconclusive: 18.4 µM [inhibitor, partial curve]",
O=C(Nc1nnc(C2CC2)s1)c1cc([N+](=O)[O-])ccc1N1CCCCC1,"inconclusive: 13 µM [inhibitor, partial curve, poor fit]",

SMILES,Potency,"activity change, negative = growth inhibition"
CC(=O)NCCNc1ncnc2ccc(-c3ccccc3C#N)cc12,"inconclusive: 29.1 µM [inhibitor, single point]",
CCOCCCNC(=O)CCc1nnc2ccc(N3CCCCC3)nn12,,inactive: -21.2%
Cc1cc(NC(=O)c2ccc3c(c2)OCO3)ccc1NC(=O)c1ccco1,"inconclusive: 13 µM [inhibitor, partial curve]",
COc1ccccc1N(CC(=O)NC1CCCCC1)S(=O)(=O)c1cccs1,"inconclusive: 23.1 µM [inhibitor, single point]",
O=C(Cc1noc2ccccc12)Nc1ccc2ccccc2c1,,inconclusive: -31.2% [inhibitor]
COc1ccc(Cl)cc1NC(=O)NC(C)c1ccncc1 (centres undefined),"inconclusive: 29.1 µM [inhibitor, single point]",
N#Cc1c2n(c(=S)n(-c3ccc(OC(F)F)cc3)c1=O)CCCCC2,"inconclusive: 0.731 µM [inhibitor, full curve]",
CN(C)c1ccc(Sc2ccc3nc(N)nc(N)c3c2)cc1,active: 0.651 µM,
CN(C)C(CNc1ncnc2sccc12)c1ccccc1 (centres undefined),"inconclusive: 29.1 µM [inhibitor, single point]",
COc1ccccc1NC(=O)C(C)NS(=O)(=O)c1ccc(Cl)cc1 (centres undefined),,inconclusive: -30.6% [inhibitor]
O=C(Cn1nc(-c2ccccc2)c2ccccc2c1=O)Nc1cccc(O)c1,,inactive: -22.9%
COc1cccc(Oc2nc3c(c(=O)n(Cc4ccccc4F)c(=O)n3C)n2C)c1,"inconclusive: 9.2 µM [inhibitor, partial curve, poor fit]",
CC(=O)Nc1cccc(C(=O)NC2CCCc3c2cnn3-c2ccc(C(C)(C)C)cc2)c1 (centres undefined),"inconclusive: 9.2 µM [inhibitor, partial curve, poor fit]",
COc1ccccc1C(=O)Nc1cc2c(cc1N1CCOCC1)n(C)c(=O)n2C,,inactive: -3.92%
COc1ccc(-c2nc3c4ccccc4ccn3c2Cc2cccc(Cl)c2)cc1OC,"inconclusive: 25.9 µM [inhibitor, single point]",
Cc1nnc(C(=O)NC(C)(C)c2nc(C(=O)NCc3ccc(F)cc3)c(O)c(=O)n2C)o1,,inactive: -28.7%
CCc1ccc([C@H]2[C@@H]3C(=O)C[C@@H]4C(=O)N(c5ccccc5)C(=O)[C@@H]4[C@@H]3CN2S(=O)(=O)c2ccc(C)cc2)cc1,,inactive: -0.682%
C[C@@H]1CN([C@@H](C)CO)C(=O)CCCn2nncc2CO[C@@H]1CN(C)C(=O)Nc1cccc2ccccc12,,inactive: -11.8%
CC(C)c1ccc(NC(=O)CN(C)S(=O)(=O)c2ccc3c(c2)c(=O)n(C)c(=O)n3C)cc1,"inconclusive: 14.6 µM [inhibitor, partial curve]",
O=C(c1ccc(-c2ccc([N+](=O)[O-])cc2)o1)N1CCCC(C(F)(F)F)C1 (centres undefined),"inconclusive: 23.1 µM [inhibitor, single point]",
Cc1[nH]n(-c2ccccc2)c(=O)c1C(c1ccc(C(=O)O)cc1)c1c(C)[nH]n(-c2ccccc2)c1=O,,inconclusive: -31.4% [inhibitor]
C[C@H](CO)N1C[C@H](C)[C@@H](CN(C)S(=O)(=O)c2ccccc2)Oc2ccc(NC(=O)Nc3ccc(C(F)(F)F)cc3)cc2C1=O,"inconclusive: 18.4 µM [inhibitor, single point]",
COc1ccc([N+](=O)[O-])cc1CN1CCN(c2ncc(Cc3ccccc3)cn2)CC1,active: 18.4 µM,

SMILES,Potency,"activity change, negative = growth inhibition"
COC(=O)Cn1c(=NC(=O)c2ccc(OC)cc2)sc2cc(OC)ccc21,active: 9.2 µM,
COc1cccc(N2CCN(C(=O)c3c(C)oc4ncnc(N5CCOCC5)c34)CC2)c1,,inactive: -17.5%
C=CCn1c(SCC(=O)Nc2nccs2)nnc1-c1cc2cccc(OC)c2o1,"inconclusive: 16.4 µM [inhibitor, single point]",
O=C(c1ccc(=O)[nH]c1)N1CCN(S(=O)(=O)c2ccccc2)CC1,,inactive: -18.2%
CCN(CC(=O)Nc1ccccc1OC)C(=O)c1cc(-c2ccccc2)nn1-c1ccccc1,"inconclusive: 29.1 µM [inhibitor, single point]",
CCOC(=O)C1=C(COC(=O)COc2ccc(C(=O)CC)cc2)NC(=O)NC1C (centres undefined),,inactive: -1.55%
CCSc1nnc(SCC(=O)NNC(=O)c2ccccc2F)s1,,inactive: -3.12%
Cc1ccc(CNC(=O)c2cc(Cl)cc(Cl)c2)n1C,,inactive: 21%
CCOC(=O)c1cn(CC)c2cc(N3CCOCC3)c(F)cc2c1=O,"inconclusive: 29.1 µM [inhibitor, single point]",
CCc1nnc(NC(=O)c2ccc3c(=O)n4c(nc3c2)CCC4)s1,"inconclusive: 29.1 µM [inhibitor, single point]",
Cc1cc(F)ccc1S(=O)(=O)N1CCCOC1CNC(=O)C(=O)NCc1cccnc1 (centres undefined),,inactive: 0.69%
COc1ccc(C(O)c2nc(-c3ccc(C)c(C)c3)cs2)cc1 (centres undefined),"inconclusive: 25.9 µM [inhibitor, single point]",
COc1ccccc1NC(=O)N1CCC(C(=O)c2ccc(Cl)cc2)CC1,"inconclusive: 13 µM [inhibitor, partial curve]",
Cc1cccc(NC(=O)CSc2cccc3cccnc23)c1C,,inactive: -21.5%
Cc1ccc(Nc2c(-c3ccco3)nc3nc(C)cc(C)n23)cc1,"inactive and inconclusive: 25.1 µM [inhibitor, single point]",
CCN(CC)c1c([N+](=O)[O-])c(=O)n(CC)c2ccccc12,active: 20.6 µM,
O=C(CSc1nn(-c2ccccc2)c(=S)s1)NC(=O)NCc1ccco1,"inconclusive: 29.1 µM [inhibitor, partial curve]",
Cc1nc2ccc(C(=O)Nc3cccc(OCC(=O)N(C)C)c3)cn2c1N(C)CC1CCCCC1,active: 13 µM,
CCOC(=O)Cc1ccc(NC(=O)NCc2ccc3c(c2)CCN3C(=O)CC)cc1,,inactive: -4.05%
OC[C@@H]1CN(Cc2ccc(F)cc2)C[C@H](n2cnc3c(NCc4ccncc4)ncnc32)O1,,inactive: -5.06%
O=[N+]([O-])c1ccc(-c2csc(Nc3ccccc3)n2)cc1,active: 12.6 µM,
Cn1nc(-c2ccc(S(N)(=O)=O)s2)cc1C(F)(F)F,"inconclusive: 29.1 µM [inhibitor, single point]",
COc1ccc(CNC(=O)[C@]2(C)CCC[C@@]3(C)C4CC[C@@]5(C)C[C@]4(CCC32)CC5=O)cc1 (some centres undefined),"inconclusive: 20.6 µM [inhibitor, single point]",
